The list shows a part of the results. Sequences were assembled here from the parent chain. Values near 0.05 are background.

This note sets out measurements from the supplement of paper PMC12217912.

First the molecules themselves.
B1: TEV protease; numbered along this chain (parent)
chain: MGESLFKGPRDYNPISSSICHLTNESDGHTTSLYGIGFGPFIITNKHLFRRNNGTLVVQSLHGVFKVKDTTTLQQHLVDGRDMIIIRMPKDFPPFPQKLKFREPQREERICLVTTNFQTKSMSSMVSDTSCTFPSGDGIFWKHWIQTKDGQCGSPLVSTRDGFIVGIHSASNFTNTNNYFTSVPKNFMELLTNQEAQQWVSGWRLNADSVLWGGHKVFMVKPEEPFQPVKEATQL

Variants of B1 are the subject of this experiment. The experiment can be described thus: raw area under fraction-flipped curve 0-4 h after induction (AUC4h, not background-subtracted), DNA-recorder readout of cleavage of the substrate (dimensionless); higher = more cleavage of the substrate by the protease variant. The settings on record: temperature: 34 °C; time window: 0-4 h after rhamnose induction. The procedure:
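In vivo DNA recorder in E. coli TOP10(DE3) ΔrhaA at 34 °C. Each TEVp single-site mutant (parent TEVp 0) is paired with a single-site variant of the 7-mer TEVs (canonical ENLYFQ|S). The substrate sits between flexible linkers in a Bxb1-sfGFP-TEVs-SsrA fusion, so cleavage stabilises Bxb1 and speeds flipping of a recombination array, read by NGS. The value is the raw area under the fraction-flipped curve over 0-4 h after rhamnose induction (AUC4h), with ≥20 reads per time point. It is not background-subtracted; inactive controls average about 0.047.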
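Note: Bxb1 expression induced with 0.2% (w/v) L-rhamnose at OD600 near 0.5, cultures sampled hourly, flipped fraction per protease–substrate barcode pair counted by paired-end Illumina sequencing.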

Turning to MGESLFKGPRDYNPISSSICHLTNESDGHTTSLYGIGFGPFIITNKHLFRRNNGTLVVQSLHGVFKVKDTTTLQQHLVDGRDMIIIRMPKDFPPFPQKLKFREPQREERICLVTTNFQTKSMSSMVSDTSCTFPSGDGIFWKHWIQTKDGQCGSPLVSTRDGFIVGIHSASNFTNTNNYFTSVDKNFMELLTNQEAQQWVSGWRLNADSVLWGGHKVFMVKPEEPFQPVKEATQL [P184D], the “area with substrate ENLAFQS” value stood at 0.0524, the “area with substrate ENLCFQS” value turned out to be 0.044, the “area with substrate ENLDFQS” value turned out to be 0.0512 and the “area with substrate ENLEFQS” value was 0.0598. For the same variant, the “area with substrate ENLGFQS” value came to 0.0627, the “area with substrate ENLKFQS” value is 0.0648, the “area with substrate ENLNFQS” value was determined as 0.0581 and the “area with substrate ENLPFQS” value was determined as 0.0561. Besides, the “area with substrate ENLQFQS” value stood at 0.0377, the “area with substrate ENLRFQS” value was 0.0715 and the “area with substrate ENLSFQS” value was 0.0904.
MGESLFKGPRDYNPISSSICHLTNESDGHTTSLYGIGFGPFIITNKHLFRRNNGTLVVQSLHGVFKVKDTTTLQQHLVDGRDMIIIRMPKDFPPFPQKLKFREPQREERICLVTTNFQTKSMSSMVSDTSCTFPSGDGIFWKHWIQTKDGQCGSPLVSTRDGFIVGIHSASNFTVTNNYFTSVPKNFMELLTNQEAQQWVSGWRLNADSVLWGGHKVFMVKPEEPFQPVKEATQL [N175V]: the “area with substrate ENLAFQS” value was 0.0524, the “area with substrate ENLCFQS” value amounted to 0.0679, the “area with substrate ENLDFQS” value is 0.0781 and the “area with substrate ENLFFQS” value worked out at 0.0667. Besides, the “area with substrate ENLHFQS” value amounted to 0.0607, the “area with substrate ENLIFQS” value was found to be 0.0342, the “area with substrate ENLKFQS” value was 0.0273 and the “area with substrate ENLLFQS” value stood at 0.0483. The “area with substrate ENLMFQS” value amounted to 0.0593, the “area with substrate ENLNFQS” value came out at 0.0616, the “area with substrate ENLPFQS” value is 0.0447 and the “area with substrate ENLQFQS” value is 0.0573. In addition, the “area with substrate ENLRFQS” value was determined as 0.066, the “area with substrate ENLSFQS” value was found to be 0.0497, the “area with substrate ENLVFQS” value came out at 0.0696 and the “area with substrate ENLWFQS” value is 0.0652.
With MGESLFKGPRDYNPISSSICHLTNESDGHTTSLYGIGFGPFIITNKHLFRRNNGTLVVQSLHGVFKVKDTTTLQQHLVDGRDMIIIRMPKDFPPFPQKLKFREPQREERICLVTTNFQTKSMSSMVSDTSCTFPSGDGIFWKHWIQTKDGQCGSPLVSTRDGFIVGIHSASNFTNTNNYFTSVPKIFMELLTNQEAQQWVSGWRLNADSVLWGGHKVFMVKPEEPFQPVKEATQL [N186I], the “area with substrate ENLAFQS” value was 0.0508, the “area with substrate ENLCFQS” value came out at 0.0761, the “area with substrate ENLDFQS” value turned out to be 0.048 and the “area with substrate ENLGFQS” value turned out to be 0.0709. The “area with substrate ENLHFQS” value turned out to be 0.0688, the “area with substrate ENLIFQS” value was found to be 0.0761, the “area with substrate ENLKFQS” value was found to be 0.0766 and the “area with substrate ENLLFQS” value came out at 0.0667. Moreover, the “area with substrate ENLNFQS” value is 0.0415 and the “area with substrate ENLRFQS” value stood at 0.0617.
With MGESLFKGPRDYNPISSSICHLTNESDGHTTSLYGIGFGPFIITNKHLFRRNNGTLVVQSLHGVFKVKDTTTLQQHLVDGRDMIIIRMPKDFPPFPQKLKFREPQREERICLVTTNFQTKSMSSMVSDTSCTFPSGDGIFWKHWIQTKDGQCGSPLVSTRDGFIVGIHSASNFTNTNNYFTSSPKNFMELLTNQEAQQWVSGWRLNADSVLWGGHKVFMVKPEEPFQPVKEATQL [V183S], the “area with substrate ENLAFQS” value came to 0.0518, the “area with substrate ENLCFQS” value is 0.0599, the “area with substrate ENLDFQS” value was found to be 0.0428 and the “area with substrate ENLEFQS” value was determined as 0.0665. In addition, the “area with substrate ENLFFQS” value worked out at 0.0958, the “area with substrate ENLKFQS” value was 0.071, the “area with substrate ENLMFQS” value was determined as 0.0669 and the “area with substrate ENLQFQS” value turned out to be 0.0598. In addition, the “area with substrate ENLRFQS” value worked out at 0.0564.
For MGESLFKGPRDYNPISSSICHLTNESDGHTTSLYGIGFGPFIITNKHLFRRNNGTLVVQSLHGVFKVKDTTTLQQHLVDGRDMIIIRMPKDFPPFPQKLKFREPQREERICLVTTNFQTKSMSSMVSDTSCTFPSGDGIFWKHWIQTKDGQCGSPLVSTRDGFIVGIHSASNFTNTNNNFTSVPKNFMELLTNQEAQQWVSGWRLNADSVLWGGHKVFMVKPEEPFQPVKEATQL [Y179N], the “area with substrate ENLAFQS” value came to 0.0557, the “area with substrate ENLDFQS” value is 0.0508, the “area with substrate ENLKFQS” value turned out to be 0.0635 and the “area with substrate ENLNFQS” value turned out to be 0.0677.
In the case of MGESLFKGPRDYNPISSSICHLTNESDGHTTSLYGIGFGPFIITNKHLFRRNNGTLVVQSLHGVFKVKDTTTLQQHLVDGRDMIIIRMPKDFPPFPQKLKFREPQREERICLVTTNFQTKSMSSMVSDTSCTFPSGDGIFWKHWIQTKDGQCGSPLVSTRDGFIVGIHSASNFTNTNVYFTSVPKNFMELLTNQEAQQWVSGWRLNADSVLWGGHKVFMVKPEEPFQPVKEATQL [N178V], the “area with substrate ENLAFQS” value is 0.0565, the “area with substrate ENLCFQS” value was determined as 0.0538, the “area with substrate ENLDFQS” value was found to be 0.0452 and the “area with substrate ENLEFQS” value is 0.0652. The “area with substrate ENLFFQS” value turned out to be 0.071, the “area with substrate ENLHFQS” value came out at 0.0448, the “area with substrate ENLIFQS” value was 0.0335 and the “area with substrate ENLMFQS” value came to 0.0711. Further, the “area with substrate ENLNFQS” value stood at 0.0645, the “area with substrate ENLRFQS” value is 0.0611, the “area with substrate ENLSFQS” value amounted to 0.0535 and the “area with substrate ENLVFQS” value came to 0.044.
In the case of MGESLFKGPRDYNPISSSICHLTNESDGHTTSLYGIGFGPFIITNKHLFRRNNGTLVVQSLHGVFKVKDTTTLQQHLVDGRDMIIIRMPKDFPPFPQKLKFREPQREERICLVTTNFQTKSMSSMVSDTSCTFPSGDGIFWKHWIQTKDGQCGSPLVSTRDGFIVGIHSASNFTNTNNYFTSVPQNFMELLTNQEAQQWVSGWRLNADSVLWGGHKVFMVKPEEPFQPVKEATQL [K185Q], the “area with substrate ENLAFQS” value was 0.0872, the “area with substrate ENLDFQS” value came to 0.0661, the “area with substrate ENLFFQS” value was found to be 0.111 and the “area with substrate ENLHFQS” value worked out at 0.0717. Also, the “area with substrate ENLIFQS” value was 0.0739, the “area with substrate ENLKFQS” value turned out to be 0.0791, the “area with substrate ENLLFQS” value worked out at 0.081 and the “area with substrate ENLNFQS” value came out at 0.0648. The “area with substrate ENLPFQS” value stood at 0.0666, the “area with substrate ENLRFQS” value worked out at 0.14, the “area with substrate ENLSFQS” value came out at 0.0691 and the “area with substrate ENLVFQS” value was found to be 0.0859. The “area with substrate ENLWFQS” value worked out at 0.073.
As to MGESLFKGPRDYNPISSSICHLTNESDGHTTSLYGIGFGPFIITNKHLFRRNNGTLVVQSLHGVFKVKDTTTLQQHLVDGRDMIIIRMPKDFPPFPQKLKFREPQREERICLVTTNFQTKSMSSMVSDTSCTFPSGDGIFWKHWIQTKDGQCGSPLVSTRDGFIVGIHSADNFTNTNNYFTSVPKNFMELLTNQEAQQWVSGWRLNADSVLWGGHKVFMVKPEEPFQPVKEATQL [S171D], the “area with substrate ENLAFQS” value amounted to 0.037, the “area with substrate ENLEFQS” value worked out at 0.0693, the “area with substrate ENLFFQS” value stood at 0.0631 and the “area with substrate ENLGFQS” value was determined as 0.0612. The “area with substrate ENLHFQS” value amounted to 0.0606, the “area with substrate ENLIFQS” value came out at 0.0719, the “area with substrate ENLKFQS” value worked out at 0.059 and the “area with substrate ENLMFQS” value turned out to be 0.072. In addition, the “area with substrate ENLNFQS” value amounted to 0.0528, the “area with substrate ENLQFQS” value was found to be 0.0728, the “area with substrate ENLRFQS” value was found to be 0.0567 and the “area with substrate ENLSFQS” value amounted to 0.0702. Further, the “area with substrate ENLTFQS” value was found to be 0.0659 and the “area with substrate ENLWFQS” value is 0.0565.
Take MGESLFKGPRDYNPISSSICHLTNESDGHTTSLYGIGFGPFIITNKHLFRRNNGTLVVQSLHGVFKVKDTTTLQQHLVDGRDMIIIRMPKDFPPFPQKLKFREPQREERICLVTTNFQTKSMSSMVSDTSCTFPSGDGIFWKHWIQTKDGQCGSPLVSTRDGFIVGIHSAPNFTNTNNYFTSVPKNFMELLTNQEAQQWVSGWRLNADSVLWGGHKVFMVKPEEPFQPVKEATQL [S171P]: the “area with substrate ENLAFQS” value was determined as 0.0595, the “area with substrate ENLDFQS” value was 0.0501, the “area with substrate ENLEFQS” value is 0.0586 and the “area with substrate ENLFFQS” value was determined as 0.0581. Besides, the “area with substrate ENLGFQS” value was found to be 0.0651, the “area with substrate ENLHFQS” value worked out at 0.0705, the “area with substrate ENLIFQS” value stood at 0.0504 and the “area with substrate ENLKFQS” value was found to be 0.0574. Also, the “area with substrate ENLNFQS” value came out at 0.0505, the “area with substrate ENLPFQS” value amounted to 0.0665, the “area with substrate ENLRFQS” value stood at 0.058 and the “area with substrate ENLVFQS” value came to 0.0533. Moreover, the “area with substrate ENLWFQS” value is 0.0693.
For MGESLFKGPRDYNPISSSICHLTNESDGHTTSLYGIGFGPFIITNKHLFRRNNGTLVVQSLHGVFKVKDTTTLQQHLVDGRDMIIIRMPKDFPPFPQKLKFREPQREERICLVTTNFQTKSMSSMVSDTSCTFPSGDGIFWKHWIQTKDGQCGSPLVSTRDGFIVGIHSASNFTNTKNYFTSVPKNFMELLTNQEAQQWVSGWRLNADSVLWGGHKVFMVKPEEPFQPVKEATQL [N177K], the “area with substrate ENLAFQS” value came out at 0.0634, the “area with substrate ENLCFQS” value worked out at 0.0671, the “area with substrate ENLDFQS” value is 0.063 and the “area with substrate ENLFFQS” value was determined as 0.08. The “area with substrate ENLGFQS” value amounted to 0.0638, the “area with substrate ENLHFQS” value was 0.0663, the “area with substrate ENLNFQS” value amounted to 0.0588 and the “area with substrate ENLPFQS” value was determined as 0.0609. Besides, the “area with substrate ENLVFQS” value amounted to 0.0751.
